These are yes or no findings as the source states them, for the method shown. In cells and extracts the contact can be indirect. Sequences can lack the tags named with a protein.
What was measured:
[1] = target: T1, GFP-Syntaxin6 (pEGFP-STX6) (UniProt O43752); assay: co-IP; HEK293FT transfected with GFP-tagged VAMP4 or Syntaxin-6 (GFP alone as control); GFP-Trap agarose 1 h at 4°C; blotted for endogenous partners; for VPS52 also after siRNA against LRRK2 or RAB29 or a non-targeting control
T1 sequence: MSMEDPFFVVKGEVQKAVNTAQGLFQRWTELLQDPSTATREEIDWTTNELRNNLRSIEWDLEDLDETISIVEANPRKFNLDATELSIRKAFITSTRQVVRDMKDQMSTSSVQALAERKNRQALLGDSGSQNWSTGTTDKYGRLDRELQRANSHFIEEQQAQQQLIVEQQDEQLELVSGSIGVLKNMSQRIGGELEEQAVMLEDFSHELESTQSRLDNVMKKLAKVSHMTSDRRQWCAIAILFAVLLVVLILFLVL

[2] = target: T2, GFP-VAMP4 (pEGFP-VAMP4) (UniProt O75379); assay: as above
T2 sequence: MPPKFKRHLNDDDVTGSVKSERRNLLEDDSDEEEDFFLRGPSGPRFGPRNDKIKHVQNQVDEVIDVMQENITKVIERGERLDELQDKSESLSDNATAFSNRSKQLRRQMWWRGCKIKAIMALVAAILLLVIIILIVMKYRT

B1: endogenous RAB29 (protein, UniProt O14966 1-203)
chain: MGSRDHLFKVLVVGDAAVGKTSLVQRYSQDSFSKHYKSTVGVDFALKVLQWSDYEIVRLQLWDIAGQERFTSMTRLYYRDASACVIMFDVTNATTFSNSQRWKQDLDSKLTLPNGEPVPCLLLANKCDLSPWAVSRDQIDRFSKENGFTGWTETSVKENKNINEAMRVLIEKMMRNSTEDIMSLSTQGDYINLQTKSSSWSCC
binding [1]: no binding | binding [2]: no binding
